Measured values from patent US20090118135A1, “METHODS AND COMPOUNDS FOR REGULATING APOPTOSIS” (The Burnham Institute, priority 2007, published 2009).

System: all six anti-apoptotic members of the Bcl-2 family
Assay: FITC-Bid BH3 FPA competition analysis with Bcl-2 family fusion proteins
Assay type: binding
Details: 100 nM GST-fusion proteins, 5 nM FITC-Bid BH3; result in words
Procedure: FIGS. 11A-G are graphs showing the results of competition assays using a fluorescence polarization assay with the green tea compound epigallecatechin (EGCG) and various Bcl-2 family proteins. 100 nM of GST-Bcl-2 fusion proteins were incubated with various concentrations of EGCG or control compound ECG (“C”) for 2 min in PBS in 50 μl. 5 nM FITC-Bid BH3 peptide was added to bring the final volume to 100 μl and the final DMSO concentration to 1%. Fluorescence polarization was measured after 20 min.
A FPA was performed to determine the binding affinity of FITC-Bid BH3 peptide to Bcl-2 proteins. Serial concentrations of Bcl-2 proteins were incubated with 5 nM FITC-Bid BH3 peptide (FITC-Ahx-[…]; SEQ ID NO: 55) in PBS using a 96 well black plate (Greiner bio-one). […] IC50 determinations were performed using GraphPad Prism software (GraphPad, Inc., San Diego, Calif.). […] Fluorescence polarization was measured after 10 min. Compounds that reduced the fluorescence polarization by 50% were considered hits.
The green tea compound epigallecatechin (EGCG) is known to bind both Bcl-2 and Bcl-XL (Leone et al., Cancer Res. 63:8118-8121, 2003). The ability of EGCG to compete with FITC-Bid BH3 peptide was analyzed by FPA using the protocol described above. […]

O=C(O[C@@H]1Cc2c(O)cc(O)cc2O[C@@H]1c1cc(O)c(O)c(O)c1)c1cc(O)c(O)c(O)c1 [EGCG, epigallecatechin]
competition with FITC-Bid BH3 peptide: bound to all six anti-apoptotic members of the Bcl-2 family to different extents
